Results on 43 molecules are retold here after ChEMBL document CHEMBL4888484, “Replenishing the malaria drug discovery pipeline: Screening and hit evaluation of the MMV Hit Generation Library 1 (HGL1) against asexual blood stage Plasmodium falciparum ,using a nano luciferase reporter read-out” (2022).

Each structure is given as a SMILES string. About 540 (0.36%) of roughly 150,000 compounds showed an effect of 50% or more. Some of the results follow.

As usually defined, the % Inhibition is the drop in the measured response relative to a control, in per cent.

This assay deals with Plasmodium falciparum. Description: Primary screen in NF54 nanoGlo assay, in single point, at 2uM, 72h; a lower Z score goes with more inhibition. Format: functional, Erythrocyte. Particulars: timepoint 72 hour.
As for `c1ccc2cc(NC3CCCC3)ccc2c1`, the “% Inhibition” value is recorded as -2% and the Z score was 0.21.

As for `CC(C)OC1CC(NC(=O)CCn2cccn2)C1(C)C` (stereo unspecified), the “% Inhibition” value is on record as -3% and the Z score is given as 0.44.

Regarding `CCC1(CC)CN(C(=O)c2ncn(C)n2)c2ccccc21`, the “% Inhibition” value is on record as -3% and the Z score stood at 0.36.

As to `O=C(O)[C@H](Cc1ccco1)n1cnc(-c2ccccc2)c1-c1c[nH]cn1`, the “% Inhibition” value is on record as 4% and the Z score is -0.57.

Consider `C[C@@H](CN1CC(c2ccccc2)(c2ccccc2)CCC1=O)N1CCOCC1`, for which the “% Inhibition” value was -13% and the Z score is on record as 2.32.

For `O=C(Nc1cc(C(F)(F)F)c[nH]c1=O)N1CC(Cc2ccco2)C1`, the “% Inhibition” value amounted to 0% and the Z score is given as 0.03.

Consider `CC(=O)c1ccc(NC(=O)c2ccc(Oc3nccs3)cc2)cc1`, for which the “% Inhibition” value is on record as -6% and the Z score is listed as 1.18.

For the molecule `Cc1ccc2[nH]c(-c3cn(C)nc3-c3ccc4c(c3)OCCO4)nc2c1C`, the “% Inhibition” value is given as -4% and the Z score is listed as 0.83.

With `Cc1cc(Br)ccc1N(C)C(=O)CCc1ccnn1C`, the “% Inhibition” value is -8% and the Z score is listed as 0.99.

For `O=C(c1cscc1Cl)N1CC(C(F)F)C1`, the “% Inhibition” value was -7% and the Z score came out at 0.67.

For `CC1CC1C(=O)NC1CCCCC1C(C)(C)C` (stereo unspecified), the “% Inhibition” value is 0% and the Z score was found to be 0.06.

For the molecule `Cc1ccc(Nc2nc(N)nc(CN3CCCCCCC3)n2)cc1`, the “% Inhibition” value is listed as -5% and the Z score is 0.66.

On to `CN1CCN(CC(=O)Nc2ccc([C@H]3CC[C@H](N(C)C(=O)c4ccc(Cl)cc4)CC3)cc2)CC1`, for which the “% Inhibition” value came to 12% and the Z score is reported as -1.32.

As to `Cc1cc(C)n(-c2ccc(CNC(=O)c3cccc(C(F)(F)F)c3)cc2)n1`, the “% Inhibition” value was -14% and the Z score is given as 1.64.

For the molecule `Cc1cc2[nH]c(=O)[nH]c2c(NC(=O)c2ccc(CN)cc2)c1C`, the “% Inhibition” value is given as -13% and the Z score was found to be 1.24.

On to `C#CCNC(=O)c1ccc(C(N)=O)cn1`, for which the “% Inhibition” value is on record as -5% and the Z score was determined as 0.68.

Turning to `O=C(COc1ccc(Br)cc1)N(Cc1ccco1)c1ccc(Cl)cc1`, the “% Inhibition” value is reported as -24% and the Z score is recorded as 3.23.

For the molecule `CCCO[C@H]1CCCN(C(=O)NCC2CCC(F)(F)CC2)CC1`, the “% Inhibition” value is -1% and the Z score was 0.09.

As for `Cc1cc2nc3c(=O)n(C4CCCCC4)c(=O)n(C4CCCCC4)c3nc2cc1N`, the “% Inhibition” value came to 14% and the Z score is -2.64.

Regarding `Cc1cc(Nc2ccccc2C)n2nc(-c3ccco3)nc2n1`, the “% Inhibition” value was -11% and the Z score is 1.27.

`COc1ccccc1-c1nnc([C@H]2CCN(Cc3ccc4c(c3)OCO4)C2)o1`: the “% Inhibition” value is -12% and the Z score stood at 1.48.

`CCc1oc2c(NC(=O)N[C@@H](C)c3n[nH]c(C)n3)cc(Cl)cc2c1C`: the “% Inhibition” value is 7% and the Z score was -1.22.

In the case of `Cc1cccc(NC(=O)C2CCN(c3nnc(C)c4c(C)n(-c5ccc(Cl)cc5)nc34)CC2)c1C`, the “% Inhibition” value is on record as 7% and the Z score is reported as -0.86.

Regarding `CCn1c([C@H]2CCN(S(=O)(=O)c3cc(Cl)cc(Cl)c3)C2)nc2ccncc21`, the “% Inhibition” value is 4% and the Z score is reported as -0.35.

On to `CC[C@@H](CNS(=O)(=O)N(C)C)Oc1ccccc1`, for which the “% Inhibition” value is listed as -17% and the Z score came out at 1.54.

Turning to `O=C(c1ccccn1)c1ccccc1Cl`, the “% Inhibition” value is on record as -16% and the Z score came out at 1.99.

`CNc1ncc(CN(C)C(=O)c2csc(C)n2)cn1`: the “% Inhibition” value is given as 0% and the Z score is given as 0.03.

For the molecule `O=C1CCC(c2ccccc2)=NN1c1ccccn1`, the “% Inhibition” value was 4% and the Z score is recorded as -0.72.

Consider `Cc1cccnc1C[C@H](C)NS(=O)(=O)C(C)C`, for which the “% Inhibition” value is -9% and the Z score amounted to 1.81.

In the case of `CC1(c2cccnc2)NC(=O)N(CC(O)c2ccc(F)cc2)C1=O` (stereo unspecified), the “% Inhibition” value worked out at 17% and the Z score is reported as -2.18.

For the molecule `CC(NC1CC(=O)N(C(C)(C)C)C1)c1ncc(Br)s1` (stereo unspecified), the “% Inhibition” value is reported as -6% and the Z score is on record as 0.78.

As to `COc1ccc(N2C(=O)C3C4C=CC(C4=C4CCCC4)C3C2=O)cc1` (stereo unspecified), the “% Inhibition” value was -8% and the Z score worked out at 1.04.

For the molecule `N#Cc1cccc(NCCCOc2ccc(F)cc2)c1`, the “% Inhibition” value was 5% and the Z score is -0.85.

Turning to `CCO[C@H]1CN(C(=O)Cc2c(C)n[nH]c2C)C[C@@H]1O`, the “% Inhibition” value was -10% and the Z score amounted to 1.81.

Regarding `O=C1NCCCCCCN(C(=O)c2ccncc2)[C@H]2C[C@H](c3nc(-c4cnccn4)no3)C[C@@H]12`, the “% Inhibition” value is listed as -3% and the Z score is 0.3.

Turning to `Fc1cccc(Cl)c1Cn1nc(C2CCOCC2)nc1Cn1cnnn1`, the “% Inhibition” value was -5% and the Z score is reported as 0.93.

Take `Cc1cc(C)cc(N2C(=O)C3N=NN(c4cc(C)cc(C)c4)C3C2=O)c1` (stereo unspecified): the “% Inhibition” value came to 13% and the Z score was -1.44.

As for `O=S(=O)(c1ccc2c(c1)OCCO2)N1CC[C@H](Oc2ccncc2Cl)C1`, the “% Inhibition” value is -7% and the Z score is given as 1.4.

On to `CCC[C@H](NC(=O)C(=O)N1CCCC1)c1nccn1C`, for which the “% Inhibition” value is -9% and the Z score is 1.09.

With `C[C@@H](CC1CCOCC1)NCc1cc(C#N)ccc1F`, the “% Inhibition” value was -1% and the Z score was 0.09.

On to `Nc1nccnc1C(=O)NCC1(c2ccccc2)CC1`, for which the “% Inhibition” value was -9% and the Z score came out at 0.74.

On to `CCc1ccnc(C(=O)N[C@@H](C)C2(OC)CCC2)c1`, for which the “% Inhibition” value is -12% and the Z score was determined as 1.82.

With `CC(=O)N(CCc1ccccc1)Cc1nc(-c2cnn(C)c2)no1`, the “% Inhibition” value was -2% and the Z score was 0.36.
